Measurements: EPA's CvTdb concentration-time database
This continues a long series; more values of the same kind are listed elsewhere.

How the values were obtained:
Rat [1] = assay: concentration in plasma after dosing; settings: dosed: 1-Chloro-2-propanol, 15 mg/kg, oral, Female, F344
Rat [2] = assay: concentration in plasma after dosing; settings: 40 min; dosed: 1-Chloro-2-propanol; 15 mg/kg; oral; Female; F344
Rat [3] = assay: concentration in plasma after dosing; settings: oral
Rat [4] = assay: concentration in plasma after dosing; settings: 40 min; dosed: 1-Chloro-2-propanol; 15 mg/kg; oral; Female; F344; remark: listed apart in the source
Rat [5] = assay: concentration in plasma after dosing; settings: 0.5 h; dosed: 1-Chloro-2-propanol; 15 mg/kg; oral; Female; F344
Rat [6] = assay: concentration in plasma after dosing; settings: dosed: 1-Chloro-2-propanol, 15 mg/kg, oral, Female, F344; remark: listed apart in the source
Rat [7] = assay: concentration in plasma after dosing; settings: dosed: 1-Chloro-2-propanol, 15 mg/kg, oral, Female, F344; remark: listed apart in the source
Rat [8] = assay: concentration in blood after dosing; settings: dosed: Naphthalene, 10 mg/kg, iv, Female, F344
Rat [9] = assay: concentration in blood after dosing; settings: dosed: Naphthalene, iv, Female, F344
Rat [10] = assay: concentration in blood after dosing; settings: dosed: Naphthalene, 10 mg/kg, iv, Female, F344; remark: listed apart in the source
Rat [11] = assay: concentration in plasma after dosing; settings: 4 h; dosed: dibromoacetic acid; 40 mg/kg; oral; Female; Harlan Sprague Dawley
Rat [12] = assay: concentration in plasma after dosing; settings: dosed: dibromoacetic acid, 10 mg/kg, oral, Male, Harlan Sprague Dawley
Rat [13] = assay: concentration in plasma after dosing; settings: dosed: dibromoacetic acid, 40 mg/kg, oral, Female, Harlan Sprague Dawley
Rat [14] = assay: concentration in plasma after dosing; settings: 40 min; dosed: dibromoacetic acid; 100 mg/kg; oral; Male; F344
Rat [15] = assay: concentration in plasma after dosing; settings: dosed: dibromoacetic acid, 10 mg/kg, oral, Male, Harlan Sprague Dawley; remark: listed apart in the source
Rat [16] = assay: concentration in plasma after dosing; settings: dosed: dibromoacetic acid, 40 mg/kg, oral, Female, Harlan Sprague Dawley; remark: listed apart in the source
Rat [17] = assay: concentration in plasma after dosing; settings: 40 min; dosed: dibromoacetic acid; 40 mg/kg; oral; Female; Harlan Sprague Dawley
Rat [18] = assay: concentration in plasma after dosing; settings: dosed: dibromoacetic acid, 10 mg/kg, oral, Male, Harlan Sprague Dawley; remark: listed apart in the source
Rat [19] = assay: concentration in plasma after dosing; settings: dosed: dibromoacetic acid, 40 mg/kg, oral, Female, Harlan Sprague Dawley; remark: listed apart in the source
Rat [20] = assay: concentration in plasma after dosing; settings: 2 h; dosed: dibromoacetic acid; 10 mg/kg; oral; Male; Harlan Sprague Dawley
Rat [21] = assay: concentration in plasma after dosing; settings: 40 min; dosed: dibromoacetic acid; 40 mg/kg; oral; Female; Harlan Sprague Dawley; remark: listed apart in the source
Rat [22] = assay: concentration in plasma after dosing; settings: dosed: dibromoacetic acid, 10 mg/kg, oral, Male, Harlan Sprague Dawley; remark: listed apart in the source
Rat [23] = assay: concentration in plasma after dosing; settings: dosed: dibromoacetic acid, 100 mg/kg, oral, Male, F344
Rat [24] = assay: concentration in plasma after dosing; settings: 40 min; dosed: dibromoacetic acid; 10 mg/kg; oral; Male; Harlan Sprague Dawley
Rat [25] = assay: concentration in plasma after dosing; settings: dosed: dibromoacetic acid, 100 mg/kg, oral, Male, F344; remark: listed apart in the source
Rat [26] = assay: concentration in plasma after dosing; settings: dosed: dibromoacetic acid, 100 mg/kg, oral, Male, F344; remark: listed apart in the source
Rat [27] = assay: concentration in plasma after dosing; settings: 2 h; dosed: dibromoacetic acid; 10 mg/kg; oral; Male; Harlan Sprague Dawley; remark: listed apart in the source
Rat [28] = assay: concentration in plasma after dosing; settings: dosed: dibromoacetic acid, 40 mg/kg, oral, Female, Harlan Sprague Dawley; remark: listed apart in the source
Rat [29] = assay: concentration in plasma after dosing; settings: dosed: dibromoacetic acid, 100 mg/kg, oral, Male, F344; remark: listed apart in the source
Rat [30] = assay: concentration in plasma after dosing; settings: 20 min; dosed: dibromoacetic acid; 40 mg/kg; oral; Female; Harlan Sprague Dawley
Rat [31] = assay: concentration in plasma after dosing; settings: 20 min; dosed: dibromoacetic acid; 100 mg/kg; oral; Male; F344
Rat [32] = assay: concentration in plasma after dosing; settings: 40 min; dosed: dibromoacetic acid; 100 mg/kg; oral; Male; F344; remark: listed apart in the source
Rat [33] = assay: concentration in plasma after dosing; settings: dosed: dibromoacetic acid, 100 mg/kg, oral, Male, F344; remark: listed apart in the source
Rat [34] = assay: concentration in plasma after dosing; settings: dosed: dibromoacetic acid, 100 mg/kg, oral, Male, F344; remark: listed apart in the source
Rat [35] = assay: concentration in plasma after dosing; settings: dosed: dibromoacetic acid, 10 mg/kg, oral, Male, Harlan Sprague Dawley; remark: listed apart in the source
Rat [36] = assay: concentration in plasma after dosing; settings: dosed: dibromoacetic acid, 100 mg/kg, oral, Male, F344; remark: listed apart in the source
Rat [37] = assay: concentration in plasma after dosing; settings: 40 min; dosed: dibromoacetic acid; 10 mg/kg; oral; Male; Harlan Sprague Dawley; remark: listed apart in the source
Rat [38] = assay: concentration in plasma after dosing; settings: 1 h; dosed: dibromoacetic acid; 10 mg/kg; oral; Male; Harlan Sprague Dawley
Rat [39] = assay: concentration in plasma after dosing; settings: dosed: dibromoacetic acid, 40 mg/kg, oral, Female, Harlan Sprague Dawley; remark: listed apart in the source
Rat [40] = assay: concentration in plasma after dosing; settings: 6 h; dosed: dibromoacetic acid; 100 mg/kg; oral; Male; F344
Rat [41] = assay: concentration in plasma after dosing; settings: dosed: dibromoacetic acid, 40 mg/kg, oral, Female, Harlan Sprague Dawley; remark: listed apart in the source
Rat [42] = assay: concentration in plasma after dosing; settings: dosed: dibromoacetic acid, 40 mg/kg, oral, Female, Harlan Sprague Dawley; remark: listed apart in the source

CC(O)CCl (stereo not drawn) [1-Chloro-2-propanol]
concentration in plasma [ng/mL]
Settings | 0.5 h | 1.5 h | 2.5 h | 20 min
Rat [1] | – | 304 | – | 4540
Rat [6] | – | 266 | – | 4100
Rat [7] | 3230 | – | 60 | –

Settings | concentration in plasma [ng/mL]
Rat [2] | 1630
Rat [4] | 1220
Rat [5] | 2290

Rat [3], dosed: 1-Chloro-2-propanol, 15 mg/kg, Female, F344
Settings | concentration in plasma [ng/mL]
0.5 h | 1660
1.5 h | 350
40 min | 1320

c1ccc2ccccc2c1 [Naphthalene]
concentration in blood [ng/mL]
Settings | 1 h | 2 h | 4 h | 5 min | 6 h | 8 h | 10 min | 12 h | 20 min | 40 min
Rat [8] | 392 | 192 | 78.8 | 12400 | 57.7 | 49.4 | 7510 | 30.2 | 1800 | 608
Rat [10] | 241 | 236 | 103 | 10000 | 63.1 | 55.9 | 8610 | 29.5 | 2220 | 922

concentration in blood [ng/mL], Rat [9]
Settings | 3 mg/kg | 10 mg/kg
1 h | 142 | 365
2 h | 57.7 | 204
2 min | 6780 | –
4 h | 29.8 | 95.2
5 min | 2930 | 8310
6 h | 24.5 | 61.9
8 h | – | 45
10 min | 3030 | 2270
12 h | – | 26.3
20 min | 529 | 2630
40 min | 260 | 1050

O=C(O)C(Br)Br [dibromoacetic acid]
Settings | concentration in plasma [ng/mL]
Rat [11] | 542
Rat [14] | 114000
Rat [17] | 20400
Rat [20] | 553
Rat [21] | 23100
Rat [24] | 1600
Rat [27] | 481
Rat [30] | 33500
Rat [31] | 86300
Rat [32] | 87300
Rat [37] | 23400
Rat [38] | 1790
Rat [40] | 722

Settings | concentration in plasma [ng/mL]
Rat [12], 3 h | 187
Rat [12], 10 min | 813
Rat [13], 3 h | 1170
Rat [13], 10 min | 16000
Rat [15], 1 h | 1550
Rat [15], 2 min | 144
Rat [16], 2 h | 4040
Rat [16], 5 min | 6120
Rat [18], 4 h | 115
Rat [18], 20 min | 2470
Rat [19], 2 h | 4510
Rat [19], 5 min | 3010
Rat [22], 3 h | 106
Rat [22], 10 min | 393
Rat [23], 4 h | 7650
Rat [23], 10 min | 32000
Rat [25], 1.25 h | 40900
Rat [25], 2 min | 7320
Rat [26], 4 h | 5750
Rat [26], 10 min | 52200
Rat [28], 1 h | 21400
Rat [28], 2 min | 148
Rat [29], 1.25 h | 44600
Rat [29], 2 min | 11000
Rat [33], 6 h | 3200
Rat [33], 20 min | 82300
Rat [34], 2 h | 30100
Rat [34], 5 min | 10800
Rat [35], 4 h | 194
Rat [35], 20 min | 1390
Rat [36], 2 h | 26600
Rat [36], 5 min | 15000
Rat [39], 1 h | 12400
Rat [39], 2 min | 1030
Rat [41], 4 h | 561
Rat [41], 20 min | 38700
Rat [42], 3 h | 1420
Rat [42], 10 min | 17600

Rat [3], dosed: dibromoacetic acid
Settings | concentration in plasma [ng/mL]
1 h, 10 mg/kg, Male, Harlan Sprague Dawley | 1530
1 h, 40 mg/kg, Female, Harlan Sprague Dawley | 9800
1.25 h, 100 mg/kg, Male, F344 | 35400
2 h, 10 mg/kg, Male, Harlan Sprague Dawley | 951
2 h, 40 mg/kg, Female, Harlan Sprague Dawley | 6530
2 h, 100 mg/kg, Male, F344 | 28500
2 min, 10 mg/kg, Male, Harlan Sprague Dawley | 143
2 min, 40 mg/kg, Female, Harlan Sprague Dawley | 694
2 min, 100 mg/kg, Male, F344 | 16200
3 h, 10 mg/kg, Male, Harlan Sprague Dawley | 418
3 h, 40 mg/kg, Female, Harlan Sprague Dawley | 1060
4 h, 40 mg/kg, Female, Harlan Sprague Dawley | 364
4 h, 100 mg/kg, Male, F344 | 8300
5 min, 10 mg/kg, Male, Harlan Sprague Dawley | 192
5 min, 40 mg/kg, Female, Harlan Sprague Dawley | 1570
5 min, 100 mg/kg, Male, F344 | 8290
6 h, 100 mg/kg, Male, F344 | 3580
10 min, 10 mg/kg, Male, Harlan Sprague Dawley | 590
10 min, 40 mg/kg, Female, Harlan Sprague Dawley | 21100
10 min, 100 mg/kg, Male, F344 | 36600
20 min, 10 mg/kg, Male, Harlan Sprague Dawley | 3870
20 min, 40 mg/kg, Female, Harlan Sprague Dawley | 37400
20 min, 100 mg/kg, Male, F344 | 78500
40 min, 10 mg/kg, Male, Harlan Sprague Dawley | 1220
40 min, 40 mg/kg, Female, Harlan Sprague Dawley | 24800
40 min, 100 mg/kg, Male, F344 | 111000
